Screen size: about 410,000 compounds; about 5,000 (1.2%) were called active. Inconclusive means that the source gave no clear call. Such entries were picked first, then a sample of the others. The call rests on the fitted dose curve; in most records, active means well fitted inhibition curve with a large enough effect; inconclusive means small, poorly fitted or top-dose-only effect; inactive means no such curve, though single readings can be large or run the other way. Where the call is inconclusive, the potency comes from a doubtful curve fit.
Experiment: qHTS for Inhibitors of TGF-b; further: nearly all actives have a fitted effect of over 65% in size
Details: HepG2 CAGA-GFP TGF-b/SMAD3 reporter, GFP fluorescence, 18 h, TGF-beta stimulated, 500 pg/mL final; series mostly up to 46.1 µM
How it was run: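 TGF-beta reporter screen: HEPG2 CAGA-GFP, 1% FBS, 500 pg/mL TGF-beta final, 18 h; per-cell GFP summed per well; curves fitted and categorized by class.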
In the case of `Cn1nc(NC(=O)C(F)(F)F)c2ncc(-c3ccc(Cl)cc3)nc21`, the Potency is reported as “inactive”.
In the case of `Cc1ccc(CSc2nnc(CNc3ccc(F)cc3)o2)cc1`, the Potency is reported as inconclusive: 11.2 µM [inhibitor, partial curve].
For `Nc1nonc1C(=O)NCCNc1ncccc1[N+](=O)[O-]`, the Potency was “inactive”.
With `Oc1cccc(/C=N/N2CCN(C3c4ccccc4-c4ccccc43)CC2)c1` the Potency was inconclusive: 31.6 µM [inhibitor, single point].
In the case of `CC(=O)Nc1ccc(S(=O)(=O)NCCSCc2ccccc2Cl)cc1`, the Potency is reported as inconclusive: 1.12 µM [inhibitor, full curve, poor fit].
For `CCOC(=O)c1sc2ncn(/N=C/c3ccc(O)c(OC)c3)c(=O)c2c1C`, the Potency was “inactive”.
In the case of `CCOC(=O)c1nnn2c1nc(N1CCCCC1)c1ccccc12`, the Potency is reported as “inactive”.
With `CCOc1ccccc1N1CCN(Cc2cccc(OC)c2OC)CC1` the Potency was “inactive”.
For `CCc1ccc2oc(C(=O)NCCc3ccc(OC)c(OC)c3)cc(=O)c2c1`, the Potency was inconclusive: 35.5 µM [inhibitor, single point].
With `COc1ccccc1N1CCN(S(=O)(=O)c2cc(-c3cc(C)no3)ccc2C)CC1` the Potency was “inactive”.
In the case of `CC(C(=O)Nc1ccccc1Oc1ccccc1)c1ccccc1` (centres undefined), the Potency is reported as inconclusive: 35.5 µM [inhibitor, single point].
For `CCN(CCNCC(O)COc1ccccc1C(C)C)c1cccc(C)c1` (centres undefined), the Potency was inconclusive: 22.4 µM [inhibitor, single point].
For `O=C(c1ccc2c(c1)OCCO2)N(Cc1cccnc1)c1nc2ccc(Cl)cc2s1`, the Potency was inconclusive: 2.24 µM [inhibitor, partial curve, poor fit].
For `COC(=O)c1ccc2c(=O)[nH]c(COC(=O)c3c(-c4ccccc4)noc3C)nc2c1`, the Potency was inconclusive: 3.55 µM [inhibitor, single point].
For `O=C(CCC(=O)NNC(=O)COc1ccccc1)NCc1ccccc1`, the Potency was inconclusive: 15.8 µM [inhibitor, partial curve, poor fit].
For `COc1ccc(-n2cc(C(=O)NCc3ccc(Cl)cc3)c3ccccc3c2=O)cc1`, the Potency was inconclusive: 35.5 µM [inhibitor, single point].
With `Cc1noc(C)c1COc1ccccc1C(=O)N(C)CC(=O)Nc1ccc(F)c(F)c1F` the Potency was “inactive”.
With `CCOC(=O)C1=C(CN2CCN(c3cc(C)ccc3C)CC2)NC(=O)NC1c1ccccc1` (centres undefined) the Potency was inconclusive: 28.2 µM [inhibitor, single point].
With `COc1ccc(-n2nnnc2C(c2cccc(OC)c2OC)N2CCN(C/C=C/c3ccccc3)CC2)cc1` (centres undefined) the Potency was inconclusive: 35.5 µM [inhibitor, partial curve, poor fit].
In the case of `COc1cccc(/C=N/NC(=S)NCCc2ccccc2)c1`, the Potency is reported as active: 25.1 µM.
With `Cc1ccc(C2(c3ccc(C)cc3)NC(=O)N(Cc3c(C)noc3C)C2=O)cc1` the Potency was inconclusive: 14.1 µM [inhibitor, partial curve, poor fit].
In the case of `Cc1ccc2nsnc2c1NC(=O)c1ccc([N+](=O)[O-])o1`, the Potency is reported as inconclusive: 8.91 µM [inhibitor, partial curve, poor fit].
For `COc1ccc(Cl)cc1S(=O)(=O)n1c([N+](=O)[O-])cnc1C`, the Potency was “inactive”.
With `CCCc1cc(=O)n2nc(N3CCC(C(=O)N4CCN(c5cccc(OC)c5)CC4)CC3)sc2n1` the Potency was inconclusive: 25.1 µM [inhibitor, single point].
For `CC(=O)c1sc(NC(=O)c2cc(=O)c3ccccc3o2)nc1C`, the Potency was inconclusive: 15.8 µM [inhibitor, single point].
In the case of `COc1ccc(S(=O)(=O)N2CCN=C2SCc2cccc(C)c2)cc1`, the Potency is reported as inconclusive: 25.1 µM [inhibitor, single point].
In the case of `CCN(CC)S(=O)(=O)c1ccc(NCC2COc3ccccc3O2)c([N+](=O)[O-])c1` (centres undefined), the Potency is reported as inconclusive: 0.112 µM [inhibitor, full curve, poor fit].
With `CCc1ccccc1NC(=O)C(=O)c1cc(C)n(-c2ccccc2F)c1C` the Potency was “inactive”.
With `CC1CCCCN1C(=O)CSc1nc2ccccc2nc1Cc1ccc(Cl)cc1` (centres undefined) the Potency was inconclusive: 35.5 µM [inhibitor, single point].
With `Fc1ccc(C2c3cccn3CCN2C(=S)Nc2cccc(F)c2)cc1` (centres undefined) the Potency was inconclusive: 4.47 µM [inhibitor, single point].
With `COCCn1c(Cc2ccccc2)nnc1SCC(=O)Nc1cc(C)on1` the Potency was inconclusive: 3.55 µM [inhibitor, single point].
In the case of `O=C1Nc2cc(C(=O)NCCCN3CCCC3)ccc2S/C1=C/c1cccc(Cl)c1`, the Potency is reported as inconclusive: 35.5 µM [inhibitor, single point].
For `C=CCc1ccc(OCCOc2ccc(/C=N/n3cnnc3)cc2OCC)c(OC)c1`, the Potency was inconclusive: 22.4 µM [inhibitor, single point].
For `COCCCNC(=O)c1ccc(N2CCCC2)c(NS(=O)(=O)c2ccc(C)cc2)c1`, the Potency was “inactive”.
For `Cc1ccc(S(=O)(=O)N2CCCCC2)c2nsnc12`, the Potency was “inactive”.
In the case of `COc1ccccc1/C=C/[C@@H]1C[C@H]2CN(Cc3cccc(Cl)c3)C(=O)[C@]23CCCN13`, the Potency is reported as inconclusive: 35.5 µM [inhibitor, single point].
For `CCOC(=O)C1=C(C)Nc2ccccc2N=C1NC(=O)c1oc2ccccc2c1COC`, the Potency was inconclusive: 12.6 µM [inhibitor, partial curve, poor fit].
In the case of `O=S(=O)(Nc1cccc(CCc2ccccn2)c1)c1ccc(Cl)cc1`, the Potency is reported as inconclusive: 10 µM [inhibitor, partial curve].
With `CCCCCC(=O)N[C@@H](c1ccccc1)[C@@H](O)C(=O)O[C@H]1C[C@@]2(O)[C@@H](OC(=O)c3ccccc3)C3[C@](C)(C(=O)[C@H](OC(C)=O)C(=C1C)C2(C)C)[C@@H](O)C[C@H]1OC[C@@]31OC(C)=O` (some centres undefined) the Potency was inconclusive: 11.2 µM [inhibitor, single point].
With `O=c1c2c3c(sc2nc(NCCO)n1CCc1ccccc1)CCCCC3` the Potency was inconclusive: 28.2 µM [inhibitor, single point].
In the case of `CCN1C(=O)c2ccccc2Sc2ccc(NC(=O)Nc3ccc(C(C)=O)cc3)cc21`, the Potency is reported as inconclusive: 22.4 µM [inhibitor, single point].
For `CCOC(=O)c1ccc(COc2ccc(C(C)C)cc2)o1`, the Potency was inconclusive: 5.62 µM [inhibitor, single point].
With `CC(=O)c1sc(Nc2ccc(Oc3ccccc3)cc2)nc1C` the Potency was inconclusive: 7.94 µM [inhibitor, partial curve, poor fit].
For `COc1cccc(C(=O)Nc2cc([N+](=O)[O-])ccc2N2CCN(C)CC2)c1`, the Potency was “inactive”.
With `CCCCN1CC(COCc2ccccc2)Oc2cccc(Oc3ccc(F)cc3)c2S1(=O)=O` (centres undefined) the Potency was inconclusive: 3.55 µM [inhibitor, partial curve, poor fit].
With `CCOc1cccc(CNCCO)c1OCc1ccc(Cl)cc1Cl` the Potency was inconclusive: 35.5 µM [inhibitor, single point].
With `C=CCn1cc(C(=O)NCc2ccco2)c(=O)c2cc(S(=O)(=O)N3CCCCCC3)ccc21` the Potency was inconclusive: 11.2 µM [inhibitor, partial curve].
For `CCN(Cc1nc(-c2ccc(OC)cc2)oc1C)S(=O)(=O)c1ccc(Cl)cc1`, the Potency was inconclusive: 10 µM [inhibitor, partial curve, poor fit].
For `Cc1ccc2nc(CSc3nnc(-c4ccco4)o3)cc(=O)n2c1`, the Potency was “inactive”.
In the case of `Cc1c(C)c2ccc(OCC(=O)NCCN3CCOCC3)cc2oc1=O`, the Potency is reported as “inactive”.
In the case of `CCOCCCNC(=O)C(c1ccc(Cl)cc1)N(Cc1ccc2c(c1)OCO2)C(=O)c1ccccc1O` (centres undefined), the Potency is reported as inconclusive: 3.16 µM [inhibitor, single point].
In the case of `COc1ccc(O)c(-c2nc(N)nc(N)n2)c1`, the Potency is reported as inconclusive: 15.8 µM [inhibitor, partial curve, poor fit].
For `O=C(c1ccc2c(c1)OCO2)N1CCC2(CC1)Oc1ccc(Cl)cc1C(=O)C21CC(c2cccnc2)=NO1` (centres undefined), the Potency was inconclusive: 35.5 µM [inhibitor, single point].
In the case of `CC(=O)Nc1ccc(Nc2nc3ccc(C)cc3n3nnnc23)cc1`, the Potency is reported as “inactive”.
For `COc1ccc(-c2cc(-c3ccc(OC)c(OC)c3)n[nH]2)c(O)c1`, the Potency was “inactive”.
In the case of `Cc1cccc(NC(=O)c2ccc(F)c(S(=O)(=O)N(C)C3CCCCC3)c2)c1`, the Potency is reported as inconclusive: 12.6 µM [inhibitor, partial curve, poor fit].
In the case of `Clc1ccccc1CN(Cc1ccco1)Cc1nnnn1C1CCCC1`, the Potency is reported as inconclusive: 35.5 µM [inhibitor, single point].
For `COc1ccc(NS(=O)(=O)c2ccc3ccccc3c2)c2ncccc12`, the Potency was inconclusive: 1.26 µM [inhibitor, full curve].
In the case of `O=Cc1[nH]c2ccccc2c1N(C(=O)CCl)c1ccc([N+](=O)[O-])cc1`, the Potency is reported as inconclusive: 35.5 µM [inhibitor, single point].
For `C[C@@H]1CN([C@@H](C)CO)C(=O)c2cc(C#CC3CCCCC3)cnc2O[C@@H]1CN(C)S(=O)(=O)c1ccc(F)cc1`, the Potency was inconclusive: 35.5 µM [inhibitor, single point].
For `COc1ccccc1N(C)S(=O)(=O)c1ccc(Cl)c(C(=O)NNC(=O)c2ccccc2O)c1`, the Potency was “inactive”.
In the case of `N#CC1(NC(=O)CSc2nc3ncc(Cl)cc3[nH]2)CCCCC1`, the Potency is reported as inconclusive: 8.91 µM [inhibitor, partial curve].
With `O=C(Cc1cccc(C(F)(F)F)c1)Nc1cccc(S(=O)(=O)N2CCCC2)c1` the Potency was inconclusive: 11.2 µM [inhibitor, single point].
For `COC(=O)[C@@]12CCCCN1[C@H](c1ccc(-c3ccc(C(C)=O)cc3)cc1)[C@H]1C(=O)N(C)C(=O)[C@H]12`, the Potency was inconclusive: 25.1 µM [inhibitor, single point].
Potency means the concentration at half of the fitted maximal effect; tags describe the fitted curve by direction and shape.
